{
  "source": "paper PMC6919601",
  "about": "“Identification of Plasmodium dipeptidyl aminopeptidase allosteric inhibitors by high throughput screening” (PLoS ONE, 2019)",
  "note": "Hit rate of the full screen: of about 110,000 compounds, about 230 (0.21%) showed an effect of 50% or more. The list shows a part of the results.",
  "data": [
    {"target": "DPAP1 (Plasmodium falciparum, UniProt Q8IIJ9)", "sequence (Q8IIJ9 whole entry, looked up)": "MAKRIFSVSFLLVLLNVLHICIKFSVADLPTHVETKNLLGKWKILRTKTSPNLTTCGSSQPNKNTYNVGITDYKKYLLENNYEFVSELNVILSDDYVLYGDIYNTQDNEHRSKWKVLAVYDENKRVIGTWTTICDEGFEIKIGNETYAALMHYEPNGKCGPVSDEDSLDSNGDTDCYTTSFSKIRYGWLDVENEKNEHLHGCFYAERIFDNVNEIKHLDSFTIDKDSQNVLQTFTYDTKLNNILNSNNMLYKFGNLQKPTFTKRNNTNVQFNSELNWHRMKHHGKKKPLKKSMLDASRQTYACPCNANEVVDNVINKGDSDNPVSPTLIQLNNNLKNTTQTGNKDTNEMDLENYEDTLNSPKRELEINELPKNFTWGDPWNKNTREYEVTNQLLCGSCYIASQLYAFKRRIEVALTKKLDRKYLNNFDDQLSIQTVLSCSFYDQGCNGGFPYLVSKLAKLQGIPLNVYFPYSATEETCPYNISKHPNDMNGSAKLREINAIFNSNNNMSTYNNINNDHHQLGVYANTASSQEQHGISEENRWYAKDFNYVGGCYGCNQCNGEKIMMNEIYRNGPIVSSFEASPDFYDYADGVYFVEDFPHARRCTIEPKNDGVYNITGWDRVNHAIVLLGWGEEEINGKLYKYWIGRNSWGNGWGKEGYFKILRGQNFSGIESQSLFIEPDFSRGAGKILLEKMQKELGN", "assay": "primary screen, percent inhibition; read by cleavage of a fluorogenic dipeptide substrate; higher = more effect of the substance", "set-up": "species or system P. falciparum D10 trophozoite lysates; single well", "units": {"% Inhibition @ 10 uM": "%"}, "values": [
      {"compound": "COc1ccc(C2C3=C(O)CC(C)(C)CC3=NC(C)=C2C(=O)OCc2ccccc2)cc1", "note": "(stereo not drawn);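 also: 30 min substrate incubation versus DMSO and 10 µM JCP410 controls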", "% Inhibition @ 10 uM": 24.6},
      {"compound": "COc1ccc(OC)c(CCNC(=O)c2cc3ccc4cccnc4c3[nH]2)c1", "% Inhibition @ 10 uM": -1.79},
      {"compound": "COc1cc(CN2CCN(S(=O)(=O)c3ccc(C)cc3)CC2)cc(OC)c1OC", "% Inhibition @ 10 uM": 2.26},
      {"compound": "COc1ccc2sc(N(CCN(C)C)C(=O)c3ccccc3Cl)nc2c1", "% Inhibition @ 10 uM": 4.64},
      {"compound": "CC1SC2(C(=O)Nc3ccccc32)N(c2ccc(Cl)cc2)C1=O", "note": "(stereo not drawn)", "% Inhibition @ 10 uM": -3.69},
      {"compound": "Oc1c2c(nc3c(-c4ccc(Cl)cc4)cnn13)CCCC2", "% Inhibition @ 10 uM": -1.66},
      {"compound": "CCc1ccc(-c2nc(SCC(=O)NCCOC)c(-c3ccc(F)cc3)[nH]2)cc1", "% Inhibition @ 10 uM": 3.48},
      {"compound": "CCC(C)NC(=O)Cn1ncn2c(cc3cc(F)ccc32)c1=O", "note": "(stereo not drawn)", "% Inhibition @ 10 uM": 0.0198},
      {"compound": "CCOC(=O)c1cn(CC)c2cc(N3CCOCC3)c(F)cc2c1=O", "% Inhibition @ 10 uM": -3.09},
      {"compound": "CCN1CCCC1CNC(=O)CCCc1cn(CC)c2ccccc12", "note": "(stereo not drawn)", "% Inhibition @ 10 uM": 8.58},
      {"compound": "COc1ccc2nc3c(O)n(C)cnc-3c2c1", "% Inhibition @ 10 uM": -5.48},
      {"compound": "COc1ccc(CNC(=O)c2sc3nc4c(c(C(F)(F)F)c3c2N)CN(C(C)=O)CC4)cc1", "% Inhibition @ 10 uM": -8.43},
      {"compound": "O=C(CSc1nnnn1-c1ccccc1)NCCC12CC3CC(CC(C3)C1)C2", "% Inhibition @ 10 uM": -3.04},
      {"compound": "CC(C)CCNC(=O)c1cc(C2CC2)[nH]n1", "% Inhibition @ 10 uM": 5.29},
      {"compound": "Cc1nn(C(=O)CCC(=O)NC2CCCC(C)C2C)c2ccccc12", "note": "(stereo not drawn)", "% Inhibition @ 10 uM": 6.89},
      {"compound": "Cc1ccc(S(=O)(=O)Nc2ccc3oc(=O)sc3c2)c(C)c1", "% Inhibition @ 10 uM": -6.65},
      {"compound": "CC(CNC(=O)c1ccc(S(=O)(=O)N(C)C)cc1)OC12CC3CC(CC(C3)C1)C2", "note": "(stereo not drawn)", "% Inhibition @ 10 uM": 0.9},
      {"compound": "CCOC(=O)N1CCC(NCc2c(C(=O)O)c(C)n(Cc3ccc(C)cc3)c2C)CC1", "% Inhibition @ 10 uM": -5.49},
      {"compound": "COc1ccccc1CNc1nc2ccccc2n2nnnc12", "% Inhibition @ 10 uM": 1.3},
      {"compound": "Cc1nc(=O)c(-c2ccccc2)c(C)n1-c1ccc(O)cc1", "% Inhibition @ 10 uM": 2.81},
      {"compound": "Cc1cnc(-c2ccc(Br)cc2)nc1", "% Inhibition @ 10 uM": -2.12},
      {"compound": "Fc1ccc(CNCc2ccncc2)cc1", "% Inhibition @ 10 uM": -1.72},
      {"compound": "Cc1ccc(OCC(=O)N(Cc2ccccc2F)C2CCS(=O)(=O)C2)cc1C", "note": "(stereo not drawn)", "% Inhibition @ 10 uM": -1.35},
      {"compound": "COc1ccc(C(=O)/C=C/c2c[nH]c3ccc(Br)cc23)cc1", "% Inhibition @ 10 uM": 6.8},
      {"compound": "Clc1nc(-c2ccccn2)cc2ccccc12", "% Inhibition @ 10 uM": 3.05},
      {"compound": "Cc1c(C(=O)N2CCCC2)oc2c1-c1nn(CC(=O)N3CCN(C)CC3)cc1CC2", "% Inhibition @ 10 uM": -1.67},
      {"compound": "CCOC(=O)c1conc1-c1ccc(CC)cc1", "% Inhibition @ 10 uM": -1.56},
      {"compound": "O/N=C(\\CCc1ccccc1)C1(O)CCCCC1", "% Inhibition @ 10 uM": 3.06},
      {"compound": "C=C(C)[C@@H]1CC=C(CN(CC(C)O)CC(C)O)CC1", "note": "(stereo partly drawn)", "% Inhibition @ 10 uM": 1.74},
      {"compound": "CCOC(=O)C1=C(CC)OC(N)=C(C#N)C1c1ccc2ccccc2c1", "note": "(stereo not drawn)", "% Inhibition @ 10 uM": -1.93},
      {"compound": "COc1cc(CN(CCCN(C)C)CCCN(C)C)ccc1OCc1ccccc1", "% Inhibition @ 10 uM": 3.24},
      {"compound": "Nc1c(C(=O)NCc2ccccc2)c2nc3ccccc3nc2n1Cc1ccco1", "% Inhibition @ 10 uM": 3.38},
      {"compound": "Oc1nc2ccccc2c2ocnc12", "% Inhibition @ 10 uM": 6.5},
      {"compound": "Cc1ccc(C2C(C#N)=C(N)OC3=C2C(=O)CC(C)(C)C3)o1", "note": "(stereo not drawn)", "% Inhibition @ 10 uM": 5.58},
      {"compound": "CN1CCN(C(=O)c2cnn(-c3ccccc3Cl)c2C2CCN(C(=O)OC(C)(C)C)CC2)CC1", "% Inhibition @ 10 uM": 2.09},
      {"compound": "COc1ccc(OCC(=O)Nc2ccc(S(=O)(=O)Nc3cccc(Cl)c3Cl)cc2)cc1", "% Inhibition @ 10 uM": 2.84},
      {"compound": "COc1ccccc1N1CCN(C(=O)CN2C(=O)c3cccc4cccc2c34)CC1", "% Inhibition @ 10 uM": -4.7},
      {"compound": "COc1cc(C(=O)NCC(c2cccnc2)N2CCN(C)CC2)cc(OC)c1OC", "note": "(stereo not drawn)", "% Inhibition @ 10 uM": -2.29},
      {"compound": "CC1S[C@@H](C(=O)NCC#N)CN1C(=O)OCc1ccccc1", "note": "(stereo partly drawn)", "% Inhibition @ 10 uM": -4.82},
      {"compound": "CCN(CC)CCNc1ncnc2sc3c(c12)CCC(C)C3", "note": "(stereo not drawn)", "% Inhibition @ 10 uM": -2.65},
      {"compound": "COc1ccc(C2C3=C(O)CCCC3=NC(C)=C2C(=O)OC2CCCC2)c(OC)c1OC", "note": "(stereo not drawn)", "% Inhibition @ 10 uM": 7.24},
      {"compound": "Cc1ccc(-c2nc(SCC(=O)NCC3CCCO3)c(-c3ccccc3)[nH]2)cc1", "note": "(stereo not drawn)", "% Inhibition @ 10 uM": 6.59},
      {"compound": "CCOCCCNC(=O)c1cc2c(s1)-c1ccccc1OC2", "% Inhibition @ 10 uM": -8.58},
      {"compound": "COc1ccc(-n2nc3c(N4CCC(C(=O)NCc5ccco5)CC4)nnc(C)c3c2C)cc1", "% Inhibition @ 10 uM": -1.05},
      {"compound": "CCOC(=O)C1=CN(C(C)C)C=C(C(=O)OCC)C1c1ccc(OC)cc1OC", "% Inhibition @ 10 uM": 0.219},
      {"compound": "CCOC(=O)c1cn(CC)c2cc(N3CCSCC3)c(F)cc2c1=O", "% Inhibition @ 10 uM": -3.09},
      {"compound": "Cc1ccc(NC(=O)CSc2n[nH]c(-c3cccc(Br)c3)n2)cc1", "% Inhibition @ 10 uM": 2.15},
      {"compound": "CCOc1ccc(NC(=O)c2cccc([N+](=O)[O-])c2C)cc1", "% Inhibition @ 10 uM": -2.82},
      {"compound": "O=C1CC(c2ccc(Cl)cc2)NC(NC(=O)c2ccc(Oc3ccccc3)cc2)=N1", "note": "(stereo not drawn)", "% Inhibition @ 10 uM": 0.0603},
      {"compound": "COc1ccc(S(=O)(=O)N(CC(=O)NCC2CCCO2)c2ccc(Cl)cc2)cc1", "note": "(stereo not drawn)", "% Inhibition @ 10 uM": 2.01},
      {"compound": "COc1ccc(C2C(C#N)=C(N)Oc3[nH]nc(-c4cccs4)c32)cc1O", "note": "(stereo not drawn)", "% Inhibition @ 10 uM": -1.38},
      {"compound": "Oc1ccc(Cl)cc1-c1nc2ccccc2s1", "% Inhibition @ 10 uM": -5.33},
      {"compound": "CCOC(=O)c1c(NC(=O)N(Cc2ccc(C)o2)C2CCN(C(C)=O)CC2)sc2c1CCCC2", "% Inhibition @ 10 uM": 3.7},
      {"compound": "S=C1NCN(CCc2ccccc2)CN1CCCN1CCOCC1", "% Inhibition @ 10 uM": -3.74},
      {"compound": "Cc1ccc(C)n1-c1nnc(N2CCC(C(=O)NC3CCCc4ccccc43)CC2)s1", "note": "(stereo not drawn)", "% Inhibition @ 10 uM": -2.25},
      {"compound": "COc1ccc(C(=O)Cn2c(N3CCCCCC3)nc3c2c(=O)n(C)c(=O)n3C)cc1", "% Inhibition @ 10 uM": 2.29},
      {"compound": "CCOc1cc2c(cc1OCC)C(c1ccc(OC)cc1F)NCC2", "note": "(stereo not drawn)", "% Inhibition @ 10 uM": 5.25},
      {"compound": "Cc1cc(C)c(S(=O)(=O)Nc2ccccc2Cl)c(C)c1", "% Inhibition @ 10 uM": -1.7},
      {"compound": "CCOCCCNC(=O)CCc1nnc2n(CCC(C)C)c(=O)c3ccccc3n12", "% Inhibition @ 10 uM": -6.95},
      {"compound": "Oc1c2c(nc3cc(-c4ccco4)nn13)CCC2", "% Inhibition @ 10 uM": -2.2},
      {"compound": "Cc1nnc(N2CCCC(C(=O)NCc3ccccn3)C2)c2nn(-c3ccc(Cl)cc3)c(C)c12", "note": "(stereo not drawn)", "% Inhibition @ 10 uM": 5.52},
      {"compound": "Cc1ccc(-c2nc(/C=N/c3cccc(C)n3)c(O)o2)cc1", "% Inhibition @ 10 uM": -9.38},
      {"compound": "CCCc1nn(C)c2c(O)nc(-c3ccccc3OCC)nc12", "% Inhibition @ 10 uM": 0.231}
    ]}
  ]
}
